Experimental data from paper PMC6919601, “Identification of Plasmodium dipeptidyl aminopeptidase allosteric inhibitors by high throughput screening” (PLoS ONE, 2019).
Among all 110,000 compounds or so, about 230 (0.21%) showed an effect of 50% or more. The list shows a part of the results.

These molecules were tested against DPAP1 (Plasmodium falciparum, UniProt Q8IIJ9) (assay: primary screen, percent inhibition; read by cleavage of a fluorogenic dipeptide substrate; higher = more effect of the substance).
Parameters: species or system P. falciparum D10 trophozoite lysates; single well
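Further: 30 min substrate incubation versus DMSO and 10 µM JCP410 controls.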

Sequence of DPAP1 (Q8IIJ9 whole entry, looked up): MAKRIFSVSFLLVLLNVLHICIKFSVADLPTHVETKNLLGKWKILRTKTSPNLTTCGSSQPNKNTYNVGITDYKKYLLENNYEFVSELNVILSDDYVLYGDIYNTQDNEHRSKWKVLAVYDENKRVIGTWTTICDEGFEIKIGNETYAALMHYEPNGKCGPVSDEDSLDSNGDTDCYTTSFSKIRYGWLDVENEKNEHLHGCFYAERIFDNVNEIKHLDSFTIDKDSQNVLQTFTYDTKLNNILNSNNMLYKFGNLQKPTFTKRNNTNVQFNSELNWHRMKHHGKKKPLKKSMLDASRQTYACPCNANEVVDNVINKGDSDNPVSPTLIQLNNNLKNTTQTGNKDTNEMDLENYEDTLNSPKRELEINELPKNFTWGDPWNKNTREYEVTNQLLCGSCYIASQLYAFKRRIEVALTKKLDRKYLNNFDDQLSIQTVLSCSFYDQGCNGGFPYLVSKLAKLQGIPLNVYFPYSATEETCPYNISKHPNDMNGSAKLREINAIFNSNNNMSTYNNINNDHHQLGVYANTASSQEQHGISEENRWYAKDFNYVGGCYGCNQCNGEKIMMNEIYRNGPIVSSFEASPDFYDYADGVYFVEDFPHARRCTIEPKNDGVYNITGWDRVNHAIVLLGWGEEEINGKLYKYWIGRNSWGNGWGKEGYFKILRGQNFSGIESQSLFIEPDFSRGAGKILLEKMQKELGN

| Compound | % Inhibition @ 10 uM [%] |
| --- | --- |
| CCN1C(=O)c2cccc3c(NC(=O)c4ccccc4C)ccc1c23 | -3.93 |
| COc1ccccc1/C=C/C=C1\N=C(c2ccc(Br)cc2)OC1=O | -1.87 |
| O=C(NCc1ccc(Cl)cc1)c1ccc(Cn2c(=O)[nH]c3ccsc3c2=O)cc1 | -0.972 |
| c1ccc(CN2CCN(Cc3csc(-c4ccccc4)n3)CC2)cc1 | 0.98 |
| CC1=C(CCN2CCc3c([nH]c4ccccc34)C2)C(C)(C)CCC1 | -3.15 |
| CCC(C)(C)C(=O)Nc1cccc(NC(C)=O)c1 | 1.29 |
| CC1=C(C(=O)OC2CCCCCCC2)C(c2ccccc2Cl)NC(=O)N1 (stereo not shown) | 2.78 |
| CC(=O)Nc1ccc(-c2cc(-c3ccc(NC(C)=O)cc3)nc(-c3ccc(Br)cc3)n2)cc1 | 5.64 |
| Cc1c(C)n(C(=O)CSc2nnc(-c3ccccc3)o2)c2ccccc12 | 0.343 |
| CN(Cc1ccccc1)S(=O)(=O)c1ccc(NC(=O)c2ccc(F)cc2)cc1 | -14.6 |
| Cc1ccc(OCC(=O)Nc2cc(C)c(C)cc2O)cc1 | -1.61 |
| Cc1cc(CCN2CCC(=O)NC2=O)ccc1OC(C)C | 5.93 |
| CC(C)=C1C2CCC1C(C(=O)Nc1cc(C)cc(C)c1)C2C(=O)O (stereo not shown) | -2.53 |
| O=C(CN(c1cccc(C(F)(F)F)c1)S(=O)(=O)c1ccccc1)N1CCc2ccccc2C1 | -3.28 |
| CCN(CC)c1nc2c(s1)C(=O)CC(C)(C)C2 | -4.93 |
| CC(=O)c1cccc(NC(=O)c2ccoc2C)c1 | 1.28 |
| CC(C)(C)S(=O)(=O)c1ccc(C(=O)O)s1 | 1.8 |
| COc1ccc(C2=NN(C(C)=O)C(c3cccc(OC)c3OC)C2)cc1OC (stereo not shown) | -7.45 |
| CCN(CC)c1ccc(/C=C2/C(=O)N(c3ccccc3)C(=S)N(c3cccc4ccccc34)C2=O)cc1 | 5.68 |
| CCC1CCc2c(sc(NC(=O)Cc3ccc(Cl)cc3)c2C(N)=O)C1 (stereo not shown) | -2.76 |
| CC(=O)C(C)n1c(CN2CC(C)OC(C)C2)nc2c1c(=O)[nH]c(=O)n2C (stereo not shown) | 3.4 |
| COc1ccc(C2CC(=O)Nc3c2ccc2ccccc32)c(OC)c1OC (stereo not shown) | 0.475 |
| Cc1cc(=O)n2nc(N3CCC(C(=O)N4CCN(C)CC4)CC3)sc2n1 | 1.38 |
| CCN(CC)C(=O)Cn1cc(SCC(=O)NC2CCCCC2)c2ccccc21 | -0.826 |
| Cc1ccccc1-c1n[nH]c(SCc2cc(=O)n3ccsc3n2)n1 | 2.29 |

| Compound | % Inhibition @ 10 uM [%] |
| --- | --- |
| COC(=O)c1ccc(COc2ccc(OC)cc2)cc1 | -5.47 |
| Fc1ccc(SCCc2ccccn2)cc1 | -3.48 |
| CC1=C(C(=O)Nc2ccccn2)C(c2ccccc2)n2nc(-c3ccccc3)nc2N1 (stereo not shown) | -2.9 |
| Cc1nc2sc(C(=O)Nc3ccccc3)c(N)c2c(C)c1C | 2.7 |
| CC1=C(c2ccc(C)c(C)c2)S(=O)(=O)N=C1NCc1ccc(OC(C)C)cc1 | -2.85 |
| CC1=C(C(=O)Nc2ccccc2C)C(c2ccc(Cl)cc2Cl)NC(=O)N1 (stereo not shown) | 4.61 |
| COC(=O)C1=C(C)NC(=O)/C1=C\c1cccc(Br)c1 | -5.26 |
| CCCCO/C(O)=C1\C(C)=NC2=C(C(=O)CC(C)(C)C2)C1c1cccc(F)c1 (stereo not shown) | 6.08 |
| Cc1ccc(CN(C(=O)c2ccccc2F)C2CCS(=O)(=O)C2)o1 (stereo not shown) | 0.569 |
| O=C(CCC1CCCCC1)Nc1ccc2c(c1)OCCO2 | -2.82 |
| CCOC(=O)c1c(NC(=O)c2cc3n(n2)C(C(F)(F)F)CC(c2ccco2)N3)sc(C)c1C (stereo not shown) | -5.7 |
| OCCNCCc1c[nH]c2ccccc12 | -0.0372 |
| CC1CCN(C(=O)CNC(=S)N2CC3CC(C2)c2cccc(=O)n2C3)CC1 (stereo not shown) | 5.89 |
| COC(=O)c1cc2ccc(C)cc2[nH]1 | -1.7 |
| COc1ccc(C2=N/C(=C\c3cccs3)C(=O)O2)cc1 | 11.6 |
| CC(=O)Nc1ccc(NC(=O)c2cc3c(C)nn(-c4ccccc4)c3s2)cc1C | -10.4 |
| CC1(C)SCC2C(=O)N3C(CSC3(C)C)C(=O)N21 (stereo not shown) | -4 |
| O=C1CSC(c2cccc([N+](=O)[O-])c2)N1c1ccccc1 (stereo not shown) | 4.54 |
| COc1cc(CNC(C)(C)CO)cc(Br)c1OCc1ccccc1 | 0.361 |
| CCN1C(=O)N/C(=C\c2cc(C)n(-c3ccccc3)c2C)C1=O | 3.81 |
| O=C(Nc1cccc(Br)c1)C1CC(=O)N(C2CCCCC2)C1 (stereo not shown) | 0.0792 |
| CN(C)c1ccc(/C=C(/C(=O)c2ccccc2)c2nc3ccccc3[nH]2)cc1 | -7.19 |
| Cc1nn(CC(=O)N2CCC3(CC2)OCCO3)c(=O)c2c1sc1ccccc12 | 0.697 |
| COc1ccc(/C=C/C(=O)Nc2ncc(Cc3ccc(Br)cc3)s2)cc1 | 4.95 |
| O=C(NCc1cccs1)C1C2C=CC3(CN(CCCN4CCOCC4)C(=O)C13)O2 (stereo not shown) | 4.01 |

| Compound | % Inhibition @ 10 uM [%] |
| --- | --- |
| COc1cc(Br)cc(/C=C2\SC(Nc3ccc(F)cc3)=NC2=O)c1O | 45.8 |
| CC(C)C[C@@H](C(=O)NCC#N)N(C)C(=O)c1ccc(-c2csc(-c3cccnc3)n2)cc1 | -7.36 |
| CC1(C)CC(=O)C2=C(C1)OC(N)=C(C#N)C2CCc1ccccc1 (stereo not shown) | -3.46 |
| Cc1ccc(Sc2cc(C(=O)NC3CC3)c3ccccc3n2)cc1 | 0.457 |
| CC1=CC2=NC(=O)/C(=C\c3cccn3CCOc3cc(C)cc(C)c3)C(=N)N2O1 | 2 |
| Cc1cccc(-n2nnc(-c3nsc(NC(=O)c4cccc(F)c4)n3)c2C)c1C | 3.99 |
| CCN(CC)c1ccc(/C=C2/NC(=O)N(c3ccccc3)C2=O)cc1 | -4.38 |
| Cc1nc2cccnc2n1-c1ccc(CC(=O)NCCCN2CCOCC2)cc1 | -8.08 |
| CCCNC(=O)C1=NN(C)C2c3ccccc3SCC12 (stereo not shown) | 2.74 |
| Cc1ccc(-n2nc(C)c3c(C)c(CCC(=O)NCC4CCCO4)c(C)nc32)cc1 (stereo not shown) | 0.953 |
| CC(COc1ccc2c(c1)OCO2)NC(=O)Cn1ncc2ccccc2c1=O (stereo not shown) | 3.69 |
| CCCSC1=C(C#N)C(c2ccc(Cl)cc2)CC(=O)N1 (stereo not shown) | 4.33 |
| CCOC(=O)C1CCN(Cc2ccc(Br)cc2)CC1 | -0.192 |
| CN(C)c1ccc(-n2nc3ccc(NC(=O)c4ccc(Br)o4)cc3n2)cc1 | 2.01 |
| CC1OC(Nc2cccc(O)c2)C(O)C(O)C1O (stereo not shown) | 4.54 |
| COC(=O)C1=C(C)NC(=O)CC1c1ccccc1F (stereo not shown) | 0.354 |
| COC(=O)c1sccc1S(=O)(=O)N1CC=C(c2ccccc2)CC1 | -7.71 |
| CC(=O)c1ccc(OC2OC3COC(c4cccc(Br)c4)OC3C(O)C2O)cc1 (stereo not shown) | 0.032 |
| COc1ccc(C(=O)NC(C)c2ccccc2)cc1 (stereo not shown) | -1.76 |
| O=C1NC(=O)C(Cc2ccc(F)cc2)C(=O)N1 | -0.807 |
| O=C(NC1CC1)c1ccc2c(c1)C1C3CCC(C3)C1C(c1ccccc1)N2 (stereo not shown) | 23.8 |
| N#Cc1ccc(NC(=O)C2CC2(c2ccccc2)c2ccccc2)cc1 (stereo not shown) | -1.45 |
| Cc1ccc(S(=O)(=O)NC(C)C(=O)Nc2cccc(F)c2)cc1 (stereo not shown) | -3.43 |
| CC(C)CNS(=O)(=O)c1ccc(CCC(=O)NC2CCCC2)cc1 | -6.08 |
| CCOc1cc(CNc2nc[nH]n2)ccc1OCC(=O)NC(C)(C)C | -3.23 |

| Compound | % Inhibition @ 10 uM [%] |
| --- | --- |
| Cc1ccc(SC(C)C(=O)Nc2ccc(F)cc2)cc1 (stereo not shown) | -2.77 |
| CN(Cc1ccccc1)C(=O)Cn1nnc2sc(-c3ccccc3)cc2c1=O | -0.946 |
| Cc1ccccc1-c1nc(CS(=O)(=O)CC(=O)NCCCN2CC(C)CC(C)C2)c(C)o1 (stereo not shown) | 3.19 |
| CCCCNC(=O)C1c2cc(OC)c(OC)cc2C(=O)N(C)C1c1cccs1 (stereo not shown) | 3.33 |
| COc1ccc(C(=O)Nc2nc3ccccc3[nH]2)cc1OC | -2.16 |
| COc1ccc2c(c1)c1ncn(CCc3ccc(Cl)cc3)c(=O)c1n2C | -5.36 |
| O=C(O)c1ccc(S(=O)(=O)c2ccc(O)cc2)cc1 | -9.31 |
| O=C1NC(=O)/C(=C/c2cccc(Br)c2)S1 | 3.9 |
| CCN1CCN(C(=O)/C(=C/c2cccs2)NC(=O)c2ccc(C)c(C)c2)CC1 | 2.26 |
| COc1ccccc1C1CC(c2ccc(C(C)C)cc2)Nc2ncnn21 (stereo not shown) | -3.23 |
| CCOC(=O)c1[nH]c(C)c(C(=O)NCCc2sccc2C)c1C | 0.655 |
| O=C(COc1ccc2ccccc2c1Br)N1CCOCC1 | 6.19 |
| CC1(O)N(CCCCCCN2C(=O)OC3(CCCCC3)C2(C)O)C(=O)OC12CCCCC2 (stereo not shown) | -3.19 |
| C=CCNC(=O)c1cccc2c1-c1ccccc1C2=O | 6.73 |
| CCOC(=O)C1CCN(Cc2ccc(C)cc2C)CC1 | 1.63 |
| Cc1ccc(C(=O)N(Cc2ccccc2)Cc2ccccc2)o1 | 1.07 |
| Cc1ccc(C)n1-c1nnc(N2CCCC(C(=O)NCCCOC(C)C)C2)s1 (stereo not shown) | 2.65 |
| Cc1c(C(=O)NC(C)c2ccccc2)sc2ncnc(N3CCN(c4ccccn4)CC3)c12 (stereo not shown) | -1.46 |
| CC1CCCN(S(=O)(=O)c2ccc(Cl)c([N+](=O)[O-])c2)C1 (stereo not shown) | 2.46 |
| Cc1ccc(CNC(=O)c2nc(-c3ccncc3)no2)cc1 | -1.67 |
| O=C(O)c1cccc(/C=c2\sc3nc4ccccc4n3c2=O)c1 | 0.193 |
| Cc1nnc2sc(COc3ccccc3)nn12 | -8.53 |
| Cn1nnc2c(NCc3nc4ccccc4n3C)nc(Cc3ccc(Cl)cc3Cl)nc21 | 3.51 |
| CCOCCCNC(=O)C1=C(C)C(=O)OC12CCN(CC)CC2 | 2.87 |
| CC1=C(C#N)C(c2ccccc2OC(C)C)C2=C(O)CC(c3ccccc3)CC2=N1 (stereo not shown) | 0.726 |
